Here are results for 56 variants from the RNAGym collection of RNA variant scans (doi:10.7554/elife.90254).

First the molecules themselves.
B1: LINE1-mini (parent)
chain: GGCAGAGCUCAACACAGCGUGGCAAAGUGGCUGUGGCUAGACUGCC

Read counts are not given, so values of variants with three or more changes are uncertain.

The variants in this data set derive from B1. Nature of the data set: self-cleavage, relative activity (ratio to wild type); higher = more cleavage; in vitro, sequencing; the parent is a self-cleaving ribozyme.
For the variant GGCAGAGCCCAACACAGCGUAGCAAAUUGGCUGUGGCUAGACUGCC [U9C G21A G27U], the self-cleavage came out at 0.03. In the case of GGCAGAGCCCAAAACAGCGUGGCAAAGUGACUGUGGCUAGACUGCC [U9C C13A G30A] it was 0.03; in that of GGCAGAGCGCUACACAGCGGGGCAAAGUGGCUGUUUCUAGACUGCC [U9G A11U U20G G35U G36U], 0.01. As to GGCAGAGCCCAACACAGCGGGGCAAAGUGGCCGUGGCUAGACUGCC [U9C U20G U32C], the self-cleavage was 0.01. The value for GGCAGAGCGCAACCCAGCGAGGCAAAGUAGCUGUGGCUAGGCUGCC [U9G A14C U20A G29A A41G] was 0.01; that for GGCAGAGCCUAACACAGCGUGACAAAGUGGCUGUGGCUAGAAUGCC [U9C C10U G22A C42A] was 0.01; that for GGCAGAGCCCAACACAGCGUAGCAAAGUGGCUGUGGCUAAACCGCA [U9C G21A G40A U43C C46A] was 0.01. For the variant GGCAGAGCCCAACACAGCGUGGCCAAGUGACUGAGGCUAGACUGCC [U9C A24C G30A U34A], the self-cleavage was 0.02.

For GGCAGAGCCCAACACAGCGUUGCAAAGUGCUUUUGGCUAGAAUGCC [U9C G21U G30C C31U G33U C42A], the self-cleavage came out at 0.02. In the case of GGCAGAGCGCUACACAGCGUGACAAGGUGGCUGUGGCUAGACUGCC [U9G A11U G22A A26G] it was 0.01.

On to GGCAGAGCCCAACACAGCGUGGCAAAGAGGCUGUGGCUAGACUUUC [U9C U28A G44U C45U], for which the self-cleavage was 0.03. For the variant GGCAGAGCCCAACACAGCGUGGCAACGUGGCUGUGGCUCGACUGCC [U9C A26C A39C], the self-cleavage stood at 0.04.

As to GGCAGAGCCCAACACAGUGUGGUAAAGCGGCUGCGGCUAUACUACC [U9C C18U C23U U28C U34C G40U G44A], the self-cleavage turned out to be 0.02. The value for GGCAGAGCCCAAUACAGCGUGGCAAAGUUGCUGUGGCUAGACUGCC [U9C C13U G29U] was 0.05; that for GGCAGAGCCCAACACUGCGUGGCAAAGUGGCUGUGGCUAAACUGCC [U9C A16U G40A] was 0.02. Regarding GGCAGAGCCCAACAUAGCGUGGCAAAGUGGCUGUGGCUAGACAGCC [U9C C15U U43A], the self-cleavage was found to be 0.03.

With GGCAGAGCCGCACACAGCGUGGCAAAGUGGCGGUGGCUAGACUGCC [U9C C10G A11C U32G], the self-cleavage was 0.01.

Take GGCAGAGCGCAACACGGCGUGUCAAAGUGGCUGUGGCUAGACUGUG [U9G A16G G22U C45U C46G]: the self-cleavage turned out to be 0.07.

In the case of GGCAGAGCGCAACCCAGCGUGGGAAAGUGGCUGUGGCUAGACUUCC [U9G A14C C23G G44U], the self-cleavage stood at 0.04. With GGCAGAGCGCAACACUGCGUGACAAAGUGGCUGUGGCUAGACUGCC [U9G A16U G22A], the self-cleavage stood at 0.01. On to GGCAGAGCCCAACACAGCGUGACAAAGUGGCCGUGGCUAGACUGCC [U9C G22A U32C], for which the self-cleavage was 0.02. In the case of GGCAGAGCCCAACACUGCGUGGCAAAGAGGCUGUGGCUAGACUGCC [U9C A16U U28A] it was 0.02; in that of GGCAGAGCCCAACACAGCGUGGCAAAAUGGCAGUGCCUGGACUGGC [U9C G27A U32A G36C A39G C45G], 0.

For GGCAGAGCCCAACACAGCGUGGCAAAGUGGCUAUGUCUAGACUGCC [U9C G33A G36U], the self-cleavage came out at 0.05. For the variant GGCAGAGCGCCACACAGCGUGGCAAAGAGGCUGUGGCUAGACUGCC [U9G A11C U28A], the self-cleavage stood at 0.01.

For GGCAGAGCCCAACACAGCGUGGCCAAGUGGCUGUGGCUAGACUGCU [U9C A24C C46U], the self-cleavage came to 0.04. In the case of GGCAGAGCGCAGCACAGCGUGGCAAAGUUGAUGUGGCUAGACUGCC [U9G A12G G29U C31A] it was 0.02.

With GGCAGAGCCCAACACAGCGUGGCAAAGUGGAUGUGGCUAGACUUCC [U9C C31A G44U], the self-cleavage was found to be 0.01. On to GGCAGAGCGCAUCACAGCGUGGCAAAGUAGCUGUGGCUAGACUGCC [U9G A12U G29A], for which the self-cleavage is 0.04. On to GGCAGAGCCCAACACAGCGUGUCAAAUUGGCUGUGGCUAGACUCCC [U9C G22U G27U G44C], for which the self-cleavage came out at 0.13. As for GGCAGAGCCCAACACAGCGUGGCAAAGUGGCUAUGGCUAUACUGCC [U9C G33A G40U], the self-cleavage stood at 0.04. GGCAGAGCCCAACACAGCGUCGCAACGUGGCUGUGGCUAGACUGCC [U9C G21C A26C]: the self-cleavage is 0.01.

Regarding GGCAGAGCCCAACACAGCGUGGCAAUGUGGCUGUGGCCAGAGUGCC [U9C A26U U38C C42G], the self-cleavage stood at 0.01. The value for GGCAGAGCGCAGCACUGCGUGGCAAAGUGCCUGUGGCUAGACUGCC [U9G A12G A16U G30C] was 0.02; that for GGCAGAGCCCAACACAGCGUGGCAAAGUGGCUGUGGCUCGACUGCA [U9C A39C C46A] was 0.03; that for GGCAGAGCCCAACACAGCGUGGCAAAGUUGCUGUGGCUAGUCUGCC [U9C G29U A41U] was 0.04. In the case of GGCAGAGCCCAACACAGAGUGGCAAAGUGGCUGUGACCAGACUGCC [U9C C18A G36A U38C], the self-cleavage worked out at 0.02. In the case of GGCAGAGCGCGACACAGCGUGGCAUAGUGGCUGUGGCUAGACUGCC [U9G A11G A25U] it was 0; in that of GGCAGAGCCCAACACAGCGUGCCAAAGUGGCUGUGUCUAGACUGCC [U9C G22C G36U], 0.01; in that of GGCAGAGCCCAACACAGCGUGGCAAAGUGGCUGGGGCGAGACUUCC [U9C U34G U38G G44U], 0.

Take GGCAGAGCCCAACACAGCGUGGCCAAGCGGCUGUGGCUAGACUGCC [U9C A24C U28C]: the self-cleavage amounted to 0.01.

With GGCAGAGCCAAACAUAGCGUGGCAAAGUGGCUGUGGCUAGACUGCC [U9C C10A C15U], the self-cleavage came to 0.03. Regarding GGCAGAGCCCAAUACCGCUUGGCAAAGUGGCUGUGGAUAGACUGCC [U9C C13U A16C G19U C37A], the self-cleavage was found to be 0.02. The value for GGCAGAGCCCAAUAUAGCGUGGCAAAGUGACUGUGGCUACACUGCC [U9C C13U C15U G30A G40C] was 0.01; that for GGCAGAGCCCAACACAUCGUGGCAAAAUGGCUAUGGCUAGACUGCC [U9C G17U G27A G33A] was 0.03. In the case of GGCAGAGCCCAACAAAGCGUGGCAAAGUGGCUGUGGCCACACGGCC [U9C C15A U38C G40C U43G] it was 0; in that of GGCAGAGCCCAACACAACGUGGCUAAGCGGCUGUGGCUAGACUGCC [U9C G17A A24U U28C], 0.04. Consider GGCAGAGCGCAACACCGCCUGGCAAAGUGGCUGUGGCUAGACUGCC [U9G A16C G19C], for which the self-cleavage came out at 0.15.

GGCAGAGCCCAACACAGCGUGGCAAAGUGGCUGUGAAUAGACUGCC [U9C G36A C37A]: the self-cleavage was 0.09. Take GGCAGAGCCCAACAUAGCGUGGCAUUGUGGCUGUGGCUAGACUGCC [U9C C15U A25U A26U]: the self-cleavage was determined as 0.03. The value for GGCAGAGCGCAACACCGCAUGGCAAAGUGGCUGUGGCUAAACAACC [U9G A16C G19A G40A U43A G44A] was 0.07.

For GGCAGAGCCCAACACAGCUUGGCAAUGUGUCUGUGGCUAGACUGCC [U9C G19U A26U G30U], the self-cleavage was found to be 0.01.

Regarding GGCAGAGCCCAACAUAGCGUGGCAAAGUGGCUGUGUCUAGACGUCC [U9C C15U G36U U43G G44U], the self-cleavage came to 0.01. The value for GGCAGAGCCCAACAGAGCGUGGCAAAGUGUCUGUGGCUAGACUGCC [U9C C15G G30U] was 0.03. The value for GGCAGAGCCCAACACACUGUGGCAAAGUUGCUGUGGCUAGACUGCC [U9C G17C C18U G29U] was 0.01; that for GGCAGAGCCCAAUACAGCCUGGCAAAGUGGCUGUAGCUAGACUGCC [U9C C13U G19C G35A] was 0.03.
